Results: paper PMC12136788
The list shows a part of the results.

B1: chr5:138873012:138874556:-|CDS|ENSG00000146006|control|control|control (ssRNA)
RNA: GGGAGUUCUACAGUCCGACGAUCUUUAUUAUUUUUAUAGUGUUCAUCUCCAGGAAGUGCUGCCCUCCCACUUUAAGAAGAAUUAGGCAGUGCUCAAUGGUUCAGAACCACAGGCAGCUCCGAUCCCAAACACGACUCCAUAUGCAACAGAGGAUUGAGCAUCA
B2: chr17:7460970:7461071:-|3pUTR|ENSG00000174282|msi1|FALSE|unique (ssRNA)
RNA: GGGAGUUCUACAGUCCGACGAUCGGAUGGAGAAGGGAAUCUACUUUCUCCCUGUUUUUUUUUCCUGAUGGUUUCUCCCAGACUAGACCAAAUAGCCAGAAAAAUGAUAGGGGUCGGAUGGGUGGGUAAGCCCAGGAUUUGCACCAACAGAGGAUUGAGCAUCA
B3: chr12:49127802:49127903:-|3pUTR|ENSG00000123416|msi1_unk|total|mutant (ssRNA)
RNA: GGGAGUUCUACAGUCCGACGAUCAUGUCAUGCUCCCAGAAUUUCAGCUUCAGCUUAACUGACAGACGUUAAAGCUUUCUGGUCCGAUUGUUUUCACUUGGUGAUCAUGUCUUUUCCAUGUGUACCUGUAAUAUUUUUCCAUCACAACAGAGGAUUGAGCAUCA
B4: chr2:108783740:108783841:+|CDS_3pUTR|ENSG00000153201|msi1_unk|FALSE|overlapping (ssRNA)
RNA: GGGAGUUCUACAGUCCGACGAUCCAAUAAUUCUCAAUUUGUUAUAACACUGAAGAAAGCAGAACAUUUGGACUUUAAGCAUGUAGUAUUUGGGUUUGUUAAGGAUGGCAUGGAUACUGUGAAAAAGAUUGAAUCAUUUGGUUCCAACAGAGGAUUGAGCAUCA
B5: chr7:47276374:47276475:-|3pUTR|ENSG00000136205|msi1|FALSE|unique (ssRNA)
RNA: GGGAGUUCUACAGUCCGACGAUCCUGGGGUUUGGGAAUGUGCUUUGUGAACUCUGCUUUAAAGUGAGGGGCCGAGGAAAACUUAGAAACAGGCAGAGUUGGAAGCAGCCAAAUCACAGUGGGUGUUGUGUGUGUGUGCGUGUGCAACAGAGGAUUGAGCAUCA
B6: chr17:21001410:21001511:-|3pUTR|ENSG00000124422|msi1_unk|total|mutant (ssRNA)
RNA: GGGAGUUCUACAGUCCGACGAUCCCGUACAACUUUCCGACACAGAAAUCUGAAUGACAUAUAUUGUUCUGUGUCAAGAAACUCCGAUUUUUUUUUUAACUAUUUAAAAACGUGAAACCUAUUCUCCGCUCACAGGCCAUGGAGCAACAGAGGAUUGAGCAUCA
B7: ENSG00000198589:be:win_4351|CDS|ENSG00000198589|bound_else_gene|NA|bound_elsewhere_windowed (ssRNA)
RNA: GGGAGUUCUACAGUCCGACGAUCGCAGUAAGGAAUUGCUUGGAGUGUCAACAGCAUUCACAACUGAAAACUAGGGGAGAUAAAGCCUUGAAACCAAUGCAUAGCCUUAUUCCUUUAGGGAAAUCUGCAGCGAAGAGCCCAGUGCAACAGAGGAUUGAGCAUCA
B8: chr20:4700211:4700532:+|3pUTR|ENSG00000171867|msi1|total|mutant (ssRNA)
RNA: GGGAGUUCUACAGUCCGACGAUCUUGCCUGGAUACCUCUGGCUCCUUCAGCAGCCCGAGCUCAGUAUACUAAUGCCCUAUCUCCGCCGAGAUUUCACCGCUAUUCCGAGAUAUUUUCCAUUUUAAGAAAACCCGACAACAUUUCAACAGAGGAUUGAGCAUCA
B9: ENSG00000107863:be:win_5801|CDS_3pUTR|ENSG00000107863|bound_else_gene|NA|bound_elsewhere_windowed (ssRNA)
RNA: GGGAGUUCUACAGUCCGACGAUCGUUCUGCAGCGAAUGCCCAACCUCAUAAACUGUCUGAAACCCCAGGCAGUAAAGCAGAGUUUCAUCCCUGUCUUUAAACUGGGGGUAUGUCCACUCUAGCAAGUAAAAAAACUACUGUUACAACAGAGGAUUGAGCAUCA
B10: chr6:149379354:149379455:+|CDS|ENSG00000055208|msi1|FALSE|bound_elsewhere (ssRNA)
RNA: GGGAGUUCUACAGUCCGACGAUCAGGGGUGGUGUCCCCUACCUUUGAACUUACAAAUCUUCUUAAUCAUCCUGAUCAUUAUGUAGAAACCGAGAAUAUUCAGCACCUCACGGACCCUACAUUAGCACAUGUGGAUAGAAUAAGCAACAGAGGAUUGAGCAUCA
B11: chr6:119178661:119178762:-|3pUTR|ENSG00000111885|msi1|total|mutant (ssRNA)
RNA: GGGAGUUCUACAGUCCGACGAUCGAAAGAAGCUUUGCCAAUUUUACUUAUUCGUGAUCAAUCAAGGAAAAUCUAAUAAAUUUCCGGCCAAAUAAGAAUACCGCAUAUUCCGUAUGGUUACCGUCAACACAGAGAUCACAACUUCAACAGAGGAUUGAGCAUCA
B12: chr7:138706293:138706717:-|three_prime_utr|ENSG00000105929|control|control|control (ssRNA)
RNA: GGGAGUUCUACAGUCCGACGAUCAUGGUUACAAGUUUUCUCCAUUCUCCUUUAAACACAUCCUGGAUGGCACAGCCGAGGAGUAGGCUGAGGGCUGCACCUCCCACGGUGGUCACCAUGCCAAUGAAGGAAGUUCAGUCUUGUCAACAGAGGAUUGAGCAUCA
B13: ENSG00000124766:be:win_3001|3pUTR|ENSG00000124766|bound_else_gene|NA|bound_elsewhere_windowed (ssRNA)
RNA: GGGAGUUCUACAGUCCGACGAUCUUUUUUUGGUAGUUGUUGUUACCCACGCCAUUUUACGUCUCCUUCACUGAAGGGCUAGAGUUUUAACUUUUAAUUUUUUAUAUUUAAAUGUAGACUUUUGACACUUUUAAAAAACAAAAACAACAGAGGAUUGAGCAUCA
B14: ENSG00000100154:stop:overlap|stop_codon|ENSG00000100154|stop_codon|NA|stop_codon (ssRNA)
RNA: GGGAGUUCUACAGUCCGACGAUCAGCCAGUGAAGGCAGGUGACACUUACCUCCACCAGGUGAUGCAGGCUGUGGUGAUAAACUAGAGUGUGAAGAGCUCAGAGUGCAGCCUCUGGCCUUGCCACUCACAAGCUGUAGGACACUCAACAGAGGAUUGAGCAUCA

Target: MSI1 full-length (mouse, UniProt Q61474 1-362)
Sequence of UniProt Q61474 (Q61474 whole entry): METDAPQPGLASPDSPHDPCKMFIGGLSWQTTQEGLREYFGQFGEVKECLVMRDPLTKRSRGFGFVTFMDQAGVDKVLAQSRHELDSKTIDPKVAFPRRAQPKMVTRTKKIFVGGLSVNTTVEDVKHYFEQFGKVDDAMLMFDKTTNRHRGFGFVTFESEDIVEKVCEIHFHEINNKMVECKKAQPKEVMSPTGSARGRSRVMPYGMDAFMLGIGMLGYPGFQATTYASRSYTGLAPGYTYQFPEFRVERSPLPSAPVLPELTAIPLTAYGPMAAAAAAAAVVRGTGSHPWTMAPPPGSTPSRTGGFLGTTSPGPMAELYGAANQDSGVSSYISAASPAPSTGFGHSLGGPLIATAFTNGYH
Assay: nsRBNS (natural sequence RNA bind-n-seq); RBNS binding buffer (assumed for nsRBNS): 25 mM Tris pH 7.5, 150 mM KCl, 3 mM MgCl2, 0.01% Triton X-100, 500 ug/ml BSA, 20 U/ml SUPERase-In, 4 C; UNK is unkempt and MSI1 is Musashi-1; names of the RNAs are library labels; protein concentration not given here; high values mean tight binding

Binder	binding signal [enrichment R]
B1	1.88
B2	2.29
B3	0.704
B4	0.864
B5	0.889
B6	0.44
B7	0.59
B8	0.588
B9	0.416
B10	1.1
B11	0.378
B12	0.36
B13	2.31
B14	4.77
